About 220 (0.56%) of roughly 39,000 compounds showed activity. This is one part of the list.
Test system: Escherichia coli K-12 BW25113
Experiment: relative growth (OD600 normalised to plate interquartile mean) (fraction); higher = less growth inhibition, active = 0.2 or less
Conditions: 50 µM; LB; incubation time: overnight (16-24 h)
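Further: static incubation at 37 °C against the wild-type strain, values averaged over two biological replicates.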

| SMILES | relative growth |
| --- | --- |
| CC#CC1(O)CCC2C3CCC4=CC(=O)CCC4=C3C(c3ccc(N(C)C)cc3)CC21C (stereo unspecified) | inactive: 0.934 |
| CCS(=O)(=O)N1CC[C@]2(CC1)CN([C@@H](CO)c1[nH]c3cc(ccc3c12)OC)C(=O)c1ccc(cc1)F | inactive: 1.02 |
| O=C(C[C@@H]1CC[C@@H]2[C@H](COC[C@@H](O)CN2S(=O)(=O)c2ccc(Oc3ccccc3)cc2)O1)NCCN1CCCCC1 | inactive: 1 |
| C[C@@H]1CN([C@H](C)CO)C(=O)c2cc(C#CC3(O)CCCC3)cnc2O[C@@H]1CN(C)S(C)(=O)=O | inactive: 1.02 |
| COc1ccc(S(=O)(=O)Nc2ccc3c(c2)C(=O)N([C@H](C)CO)C[C@H](C)[C@H](CN(C)S(C)(=O)=O)OCCCC[C@H](C)O3)cc1 | inactive: 0.986 |
| C[C@H](CO)N1C[C@H](C)[C@@H](CN(C)C(=O)Cc2cccnc2)Oc2cc(C#Cc3ccccc3F)ccc2S1(=O)=O | inactive: 1.02 |
| C[C@H](CO)N1C[C@H](C)[C@H](CN(C)C(=O)Nc2cccc3ccccc23)Oc2ccc(NC(=O)Cn3cnnn3)cc2CC1=O | inactive: 0.974 |
| C[C@@H]1CCCCO[C@H](CN(C)S(=O)(=O)c2ccc(Cl)cc2)[C@H](C)CN([C@@H](C)CO)C(=O)c2cc(NC(=O)Nc3ccccc3)ccc2O1 | inactive: 1.05 |
| Cc1n[nH]c(=S)[nH]c1=O | inactive: 1 |
| C[C@@H]1CN([C@H](C)CO)C(=O)c2cccc(NS(=O)(=O)c3ccc(Cl)cc3)c2O[C@@H]1CN(C)S(C)(=O)=O | inactive: 1 |
| COC(=O)C1=CO[C@@H](O[C@@H]2O[C@H](CO)[C@@H](O)[C@H](O)[C@H]2O)[C@H]2[C@@H]1[C@H](OC(C)=O)C[C@]2(C)OC(C)=O | inactive: 1.04 |
| C[C@@H]1CN([C@H](C)CO)C(=O)c2cc(NS(=O)(=O)c3cccs3)ccc2O[C@@H](C)CCCCO[C@H]1CN(C)Cc1ccc2c(c1)OCO2 | inactive: 1.01 |
| C[C@@H]1CN([C@H](C)CO)C(=O)c2cccc(NC(=O)Nc3cccc4ccccc34)c2O[C@H]1CN(C)S(=O)(=O)c1ccccc1 | inactive: 0.987 |
| CC(C)NC(=O)N(C)C[C@@H]1Oc2ccc(NC(=O)CCN3CCOCC3)cc2C(=O)N([C@H](C)CO)C[C@@H]1C | inactive: 0.987 |
| C[C@H]1CN([C@@H](C)CO)C(=O)c2cc(-c3ccc(C(=O)N(C)C)cc3)cnc2O[C@@H]1CN(C)C(=O)c1cccnc1 | inactive: 1.02 |
| COc1ccc(NC(=O)Nc2ccc3c(c2)C(=O)N([C@@H](C)CO)C[C@@H](C)[C@@H](CN(C)S(=O)(=O)c2cccs2)OCCCC[C@@H](C)O3)cc1 | inactive: 1.03 |

From the supplement of paper PMC9446081
